{
  "source": "paper PMC10668032",
  "note": "The other results are listed elsewhere or left out. At the low end of the ranking, values are background and their order means little.",
  "data": [
    {"molecular_target": "SIX1-Q177R homeodomain (UniProt Q15475)", "test": "universal protein binding microarray", "details": "Universal all-10-mer PBM (8x60K, AMADID 030236), 300 nM GST-tagged protein, Alexa Fluor 488 anti-GST; buffer, salt, pH and temperature not stated; high values mean tight binding; most listed sequences are background and not binding sites; double strand, one strand shown", "units": {"binding signal": "E-score"}, "values": [
      {"sequence": "CGATCTAC", "binding signal": 0.00439},
      {"sequence": "ATCTGTTG", "binding signal": -0.0729},
      {"sequence": "AGGAAAAG", "binding signal": -0.119},
      {"sequence": "GAGAATAA", "binding signal": -0.144},
      {"sequence": "CACTCTTA", "binding signal": 0.164},
      {"sequence": "CGTTGACC", "binding signal": 0.0435},
      {"sequence": "ACAATTGC", "binding signal": -0.0808},
      {"sequence": "AGGGGTTC", "binding signal": 0.193},
      {"sequence": "GGTGATGA", "binding signal": -0.00208},
      {"sequence": "GCAGCACA", "binding signal": 0.00365},
      {"sequence": "GTCGTTAA", "binding signal": -0.0424},
      {"sequence": "TAAATCAA", "binding signal": -0.192},
      {"sequence": "GAGGCCTA", "binding signal": -0.225},
      {"sequence": "GAAGGTGC", "binding signal": 0.0832},
      {"sequence": "ATTTATAG", "binding signal": -0.165},
      {"sequence": "AATGATAC", "binding signal": 0.212},
      {"sequence": "AGTATTGC", "binding signal": 0.202},
      {"sequence": "AAAGATAG", "binding signal": -0.212},
      {"sequence": "CCTGAGCC", "binding signal": -0.126},
      {"sequence": "CCTACCGC", "binding signal": 0.0528},
      {"sequence": "CCCTTCCA", "binding signal": -0.0443},
      {"sequence": "CGACGGAA", "binding signal": -0.0143},
      {"sequence": "AAGCATTA", "binding signal": -0.159},
      {"sequence": "CATTTAAA", "binding signal": -0.0828},
      {"sequence": "AGGAAAAT", "binding signal": -0.167},
      {"sequence": "CCCTCCCA", "binding signal": 0.176},
      {"sequence": "GATGCCAA", "binding signal": -0.101},
      {"sequence": "GTGGTCGA", "binding signal": -0.0682},
      {"sequence": "ACGTAGCG", "binding signal": -0.00278},
      {"sequence": "CAACAGCC", "binding signal": -0.183},
      {"sequence": "GGCTGCTA", "binding signal": -0.00524},
      {"sequence": "ACGAATTG", "binding signal": -0.0274},
      {"sequence": "GCACGAAC", "binding signal": 0.138},
      {"sequence": "AAGCCACC", "binding signal": -0.276},
      {"sequence": "AATTGAAT", "binding signal": -0.28},
      {"sequence": "GACCGGAC", "binding signal": -0.0399},
      {"sequence": "GGCCAAGA", "binding signal": -0.0778},
      {"sequence": "AACCTATC", "binding signal": -0.0779},
      {"sequence": "ATATGAGC", "binding signal": -0.145},
      {"sequence": "CTCCGATA", "binding signal": 0.0792},
      {"sequence": "TACTAGTA", "binding signal": 0.0531},
      {"sequence": "CCTCTAGA", "binding signal": -0.183},
      {"sequence": "GGAATGGA", "binding signal": -0.172},
      {"sequence": "ACACGCAT", "binding signal": 0.383},
      {"sequence": "AAGTATAC", "binding signal": -0.0758},
      {"sequence": "AGATTAAC", "binding signal": -0.131},
      {"sequence": "CGTGGAGC", "binding signal": -0.00216},
      {"sequence": "CCACGTAA", "binding signal": -0.148},
      {"sequence": "ACCTAACT", "binding signal": -0.122},
      {"sequence": "CACCGGGA", "binding signal": 0.176},
      {"sequence": "ACAGCACC", "binding signal": 0.184},
      {"sequence": "CATCTCAA", "binding signal": -0.278},
      {"sequence": "TGCTGGAA", "binding signal": -0.0826},
      {"sequence": "TGCACGAA", "binding signal": -0.116},
      {"sequence": "AGTAGGCG", "binding signal": -0.0635},
      {"sequence": "GTCAGGAA", "binding signal": -0.0703},
      {"sequence": "CAAACTTA", "binding signal": -0.108},
      {"sequence": "ACCACGAC", "binding signal": 0.011},
      {"sequence": "GCAAGCTA", "binding signal": -0.169},
      {"sequence": "GCTATGTA", "binding signal": -0.248},
      {"sequence": "CTTCCTAC", "binding signal": -0.143},
      {"sequence": "CGCGGAGA", "binding signal": -0.134},
      {"sequence": "GATCCCGA", "binding signal": 0.203},
      {"sequence": "CGTACTTA", "binding signal": 0.0885},
      {"sequence": "GCTGTAGA", "binding signal": -0.0426},
      {"sequence": "CGCGCGAA", "binding signal": -0.113},
      {"sequence": "AGTCTAAC", "binding signal": -0.191},
      {"sequence": "CTTTAAGC", "binding signal": -0.11},
      {"sequence": "AGGATCAC", "binding signal": 0.128},
      {"sequence": "AGACGGAA", "binding signal": -0.304},
      {"sequence": "GTCATCTA", "binding signal": 0.0299},
      {"sequence": "ATACCGTA", "binding signal": 0.117},
      {"sequence": "GCAATATA", "binding signal": -0.234},
      {"sequence": "CAGAGCTC", "binding signal": -0.243},
      {"sequence": "GCGTTAGA", "binding signal": -0.0374},
      {"sequence": "CTGGCGGA", "binding signal": -0.134},
      {"sequence": "ACACCTAC", "binding signal": 0.456},
      {"sequence": "GGGATGCA", "binding signal": -0.203},
      {"sequence": "ACCACACG", "binding signal": 0.297},
      {"sequence": "CGACTACC", "binding signal": -0.0227},
      {"sequence": "GCCCAAGC", "binding signal": -0.119},
      {"sequence": "TCCAAGGA", "binding signal": -0.186},
      {"sequence": "CATGACGA", "binding signal": -0.091},
      {"sequence": "TGAGGCAA", "binding signal": -0.0678},
      {"sequence": "CACGGGGC", "binding signal": 0.212},
      {"sequence": "GTACCGGA", "binding signal": -0.0912}
    ]}
  ]
}
